# PubChem BioAssay AID624418 (National Center for Advancing Translational Sciences (NCATS), 2012)
# Out of some 410,000 compounds screened, about 530 (0.13%) were called active. The inconclusive results got no clear call from the source; some entries with a clear call stand among them for comparison. Calls come from the whole dose curve; as a rule, active = well fitted inhibition curve with a large enough effect; inconclusive = small, poorly fitted or top-dose-only effect, or another doubt; inactive = no such curve, though single readings can be large or run the other way. Potencies beside an inconclusive call are fits to weak or partial responses and may not hold up.
# Test: qHTS of GLP-1 Receptor Inverse Agonists: Cytotox Screen
# Settings: HEK293 cAMP-luciferase reporter cells, luminescence, 24 h; series mostly up to 38.3 µM
# Outline: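 Quantitative HTS format, 1536 wells, 200 cells/uL seeded. Compounds: 23 nL, 24 h, 37 °C. Detection: luciferase reagent, luminescence at 12 min RT; decreased signal taken as cytotoxic.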
# Potency is the fitted concentration of half-maximal effect.
row,SMILES,Potency
1,O=C(NC(c1ccccc1)c1ccc2ccccc2n1)C1CCN(CCOc2ccc(Cl)cc2Cl)CC1 (stereo unspecified),"inconclusive: 22.4 µM [inhibitor, single point]"
2,COc1ccc(NC(=O)c2cc(-c3cc(C)cc(C)c3O)n[nH]2)cc1Cl,"inconclusive: 12.6 µM [inhibitor, partial curve, poor fit]"
3,CC(C)CN(C(=O)CCC(=O)OCC(=O)NCCc1ccccc1)c1c(N)n(CC(C)C)c(=O)[nH]c1=O,"inconclusive: 5.62 µM [inhibitor, full curve]"
4,COc1ccc(Nc2nc(-c3cccnc3)nc3ccccc23)cn1,"inconclusive: 28.2 µM [inhibitor, single point]"
5,COc1ccc(NC(=O)/C(Cl)=C(/Cl)S(=O)Cc2ccccc2)cn1 (stereo unspecified),active: 2.82 µM
6,O=C1Nc2cc(Cl)ccc2Oc2cc(Oc3ccccc3)ccc21,inactive
7,Cc1ccc([N+](=O)[O-])cc1NC(=O)CN(C(=O)c1ccc(Cl)cc1)C1CCCCC1,"inconclusive: 10 µM [inhibitor, single point]"
8,COc1ccc(NC(=O)/C(Cl)=C(/Cl)S(=O)Cc2ccc(Cl)cc2)cn1 (stereo unspecified),"inconclusive: 1.41 µM [inhibitor, full curve]"
9,CCO[C@@H]1OC(C(=O)NC2CC2)=C[C@H](c2ccc(C(F)(F)F)cc2)[C@H]1CCCO,"inconclusive: 3.55 µM [inhibitor, full curve]"
10,O=C(COc1ccccc1-c1ccccc1)N/N=C/c1cccc2ccccc12,"inconclusive: 1.78 µM [inhibitor, full curve]"
11,COC(=O)c1c(SCC(=O)Nc2ccccc2OC)[nH]c2ccccc2c1=O,inactive
12,Cc1ccc(N/N=C(\C#N)C(=N)N2CCCCC2)cc1,"inconclusive: 10 µM [inhibitor, partial curve]"
13,COc1ccc(/C=C2/SC(=O)N(CCNC(=O)C3CCCN3C(=O)c3cccs3)C2=O)cc1 (stereo unspecified),"inconclusive: 1.26 µM [inhibitor, full curve, poor fit]"
14,N#Cc1ccc(-c2csc(NNC(=O)c3ccc(Br)cc3)n2)cc1,"inconclusive: 28.2 µM [inhibitor, single point]"
15,O=C(CSc1nc2c(oc3ccccc32)c(=O)[nH]1)Nc1cccc(Cl)c1,"inconclusive: 10 µM [inhibitor, single point]"
16,COc1ccccc1Nc1nc2ccccc2n2cnnc12,inactive
17,COc1ccc(OCCCN2CCc3ccccc3C2)cc1,inactive
18,C=CCC1(CC=C)CCCN1C(=O)c1cc(COc2ccc(F)c(F)c2)on1,inactive
19,CCOC(=O)c1ccc(NC(=O)c2cc3c(n(-c4ccc(C)cc4)c2=O)CC(C)(C)CC3=O)cc1,inactive
20,CCc1ccc(NC(=O)Cn2c(=O)ccc3cc(S(=O)(=O)N4CCCC4)ccc32)cc1,inactive
21,Cc1ccc(S(=O)(=O)N[C@@H](Cc2ccccc2)C(=O)CCl)cc1,"inconclusive: 7.94 µM [inhibitor, partial curve]"
22,O=C(NC(Cc1c[nH]c2ccccc12)c1nnc2n1CCCCC2)c1ccccc1Cl (stereo unspecified),inactive

row,SMILES,Potency
1,Cc1cccc(NC(=S)NCCc2c[nH]c3ccccc23)c1,"inconclusive: 11.2 µM [inhibitor, partial curve, poor fit]"
2,O=C(/C=C/NNC(=O)c1ccc(Cl)cc1)c1ccccc1,"inconclusive: 31.6 µM [inhibitor, partial curve, poor fit]"
3,C=CC[C@@H](CC(=O)N[C@@H](CO)Cc1ccccc1)C(=O)N[C@@H](COC(=O)[C@H](CC=C)CC(=O)OC(C)(C)C)Cc1c[nH]c2ccccc12,"inconclusive: 31.6 µM [inhibitor, single point]"
4,CCOc1ccc(CSCCNC(=S)Nc2ccc(OC)cc2)cc1,"inconclusive: 8.91 µM [inhibitor, partial curve, poor fit]"
5,Cc1ccc2nc3cc([N+](=O)[O-])cc([N+](=O)[O-])c3cc2c1,"inconclusive: 31.6 µM [inhibitor, single point]"
6,CCCOc1cc(C)c(Cl)cc1S(=O)(=O)N(CC)CC,inactive
7,CCC(C)NC(=O)c1ccc(CSCc2ccccc2Cl)o1 (stereo unspecified),inactive
8,COc1ccccc1N=C1SC(C(=O)Nc2cccc(Cl)c2Cl)C(N)=C1C(N)=O (stereo unspecified),"inconclusive: 5.62 µM [inhibitor, partial curve, poor fit]"
9,CCN(CC)S(=O)(=O)c1ccc2oc(C(=O)NC3CCCc4ccccc43)c(C)c2c1 (stereo unspecified),inactive
10,CCN1CCN(CCCNC(=O)c2ccc3c(c2)N(Cc2ccc(C)cc2)CCS3)CC1,"inconclusive: 14.1 µM [inhibitor, single point]"
11,Cc1ccc(C)c(S(=O)(=O)/N=C2\C=C(NS(=O)(=O)c3ccccc3)C(=O)c3ccccc32)c1,inactive
12,CCOc1ccc(Nc2nc(N)c([N+](=O)[O-])c(N3CCN(C)CC3)n2)cc1,"inconclusive: 14.1 µM [inhibitor, single point]"
13,COCCNC(=O)c1cccc(OC2CCN(Cc3ccccc3OC(F)F)CC2)c1,inactive
14,CC(C)c1ccc(NC(=O)CCc2ccccc2)cc1,"inconclusive: 14.1 µM [inhibitor, single point]"
15,CCOC(=O)C1(Cc2cccc(OC)c2)CCCN(Cc2nccn2CC)C1 (stereo unspecified),"inconclusive: 22.4 µM [inhibitor, single point]"
16,Cc1ccc(C)c(NC(=O)Cn2nnc(C(=O)NCc3ccco3)c2N)c1,"inconclusive: 3.98 µM [inhibitor, partial curve, poor fit]"
17,Oc1nc(Nc2cccc(Cl)c2)sc1/C=C1\C=Nc2ccccc21,"inconclusive: 15.8 µM [inhibitor, single point]"
18,O=C(C#Cc1ccccc1)c1ccco1,"inconclusive: 7.94 µM [inhibitor, partial curve]"
19,COc1ccc(C2C(C(C)=O)=C(O)C(=O)N2CCc2c[nH]c3ccccc23)cc1 (stereo unspecified),"inconclusive: 12.6 µM [inhibitor, single point]"
20,Cc1cc(C)c2c(n1)nn1c(C)c(CCC(=O)NCc3ccco3)c(C)nc21,"inconclusive: 11.2 µM [inhibitor, single point]"
21,CC(NC(=O)COC(=O)c1cc(NS(=O)(=O)c2ccc(Cl)c([N+](=O)[O-])c2)ccc1O)C1CC2CCC1C2 (stereo unspecified),"inconclusive: 31.6 µM [inhibitor, partial curve, poor fit]"
22,CCC(C)C(=O)Nc1nc(C)c(-c2csc(Nc3cc(OC)ccc3OC)n2)s1 (stereo unspecified),"inconclusive: 0.398 µM [inhibitor, partial curve, poor fit]"

row,SMILES,Potency
1,CC(C(O)C12CC3CC(CC(C3)C1)C2)N1CCCCC1 (stereo unspecified),inactive
2,CCOC(=O)c1c(C)[nH]c(C)c1C(=O)CSc1nc2ccccc2c(=O)n1-c1ccccc1C,inactive
3,O=C(CC1(c2ccc(Cl)cc2)C2CC3CC(C2)CC1C3)NCCO (stereo unspecified),inactive
4,Cc1ccc(-c2cn3c(n2)CCCC3)cc1,"inconclusive: 28.2 µM [inhibitor, single point]"
5,O=[N+]([O-])c1ccc(N=Cc2ccc(Br)c([N+](=O)[O-])c2)cc1,"inconclusive: 31.6 µM [inhibitor, partial curve, poor fit]"
6,Cc1ccccc1NC(=O)/C=C/c1cccc(C(F)(F)F)c1,"inconclusive: 3.55 µM [inhibitor, full curve, poor fit]"
7,CN(C)c1oc(-c2ccc(OCc3ccccc3)cc2)nc1C#N,inactive
8,Cn1c(=O)c(=O)n(C)c2cc(S(=O)(=O)N3CCC(Cc4ccccc4)CC3)ccc21,inactive
9,COc1ccc(/C=N\NC(=O)c2cc(OCC(F)(F)F)ccc2OCC(F)(F)F)cc1,"inconclusive: 12.6 µM [inhibitor, partial curve, poor fit]"
10,Cc1cc(C)cc(C(=O)N(CCc2ccccc2)C2CC3CCC(C2)N3C)c1 (stereo unspecified),"inconclusive: 10 µM [inhibitor, partial curve]"
11,COc1ccc(NC(=O)CSc2oc(-c3cccs3)nc2S(=O)(=O)c2ccc(Br)cc2)c(OC)c1,inactive
12,CCOC(=O)C1CCCN(CCC(=O)Nc2ccc3c(c2)CCC3)C1 (stereo unspecified),"inconclusive: 1 µM [inhibitor, full curve, poor fit]"
13,Cc1ccccc1/C=C1\OC(=O)c2ccccc21,inactive
14,Cc1cc(C(=O)CCl)c(C)n1-c1cccc(S(=O)(=O)N2CCOCC2)c1,"inconclusive: 28.2 µM [inhibitor, single point]"
15,O=C(NCc1ccccc1)C1Cc2c(-c3ccc(Cl)cc3)ccnc2O1 (stereo unspecified),"inconclusive: 1.41 µM [inhibitor, full curve, poor fit]"
16,C/C(NC(=O)c1ccccc1F)=C1\C(=O)C[C@@H]2[C@H]1C2(C)C,inactive
17,COc1ccccc1-c1cc2nc(-c3ccccc3)cc(N3CCN(C(=O)c4ccco4)CC3)n2n1,inactive
18,Nc1c(N(CCC2=CCCCC2)C(=O)COc2ccc(F)cc2)c(=O)[nH]c(=O)n1Cc1ccccc1,"inconclusive: 12.6 µM [inhibitor, single point]"
19,O=C(/C=C/c1ccccc1)NC(=S)Nc1ccccc1,"inconclusive: 11.2 µM [inhibitor, partial curve, poor fit]"
20,O=C(Nc1ccc(N2CCOCC2)c(Cl)c1)c1cc2ccccc2o1,"inconclusive: 11.2 µM [inhibitor, partial curve, poor fit]"
21,COc1c(O)ccc(/C=C(\C#N)c2nc3ccccc3[nH]2)c1[N+](=O)[O-],"inconclusive: 28.2 µM [inhibitor, single point]"
22,COc1ccc(N2CCN(C(=O)c3cc(S(=O)(=O)N4CCCCCC4)cn3C)CC2)cc1,inactive
